Experimental data published in PubChem BioAssay AID686979 (National Center for Advancing Translational Sciences (NCATS), 2013).
Screen size: about 420,000 compounds; about 50,000 (12%) were called active. Inconclusive means that the source gave no clear call. Such entries were picked first, then a sample of the others. The call rests on the fitted dose curve; in most records, active means well fitted inhibition curve with a large enough effect; inconclusive means small, poorly fitted or top-dose-only effect; inactive means flat fitted curve, though single readings scatter. No potency is given beside an inconclusive call; the fits are too rough.

assay: qHTS for Inhibitors of human tyrosyl-DNA phosphodiesterase 1 (TDP1): qHTS in cells in presence of CPT; details: chicken DT40 Tdp1-/-;hTDP1 cells + 20 nM CPT, ATP luminescence, 48 h; activity change, negative = growth inhibition: at 46.2 µM (top of the series) unless noted; further: nearly all actives have a fitted effect of over 55% in size
In short: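 Chicken DT40 Tdp1-/- cells complemented with human TDP1, 400 cells/well, exposed to compounds plus 20 nM camptothecin for at least 48 h at 37 C; viability read as ATP content by CellTiter-Glo luminescence.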
On the % scale 0 is the no-effect control and ±100 the full control effect; potency means the concentration at half of the fitted maximal effect; tags describe the fitted curve by direction and shape.

Row | Structure (SMILES) | Potency | activity change, negative = growth inhibition
1 | CC(C)(C)C(=O)NC(=S)NCc1ccccc1 | inactive | –
2 | CCn1c(=O)c(C(=O)NNC(=O)c2ccc(Cl)cc2Cl)c(O)c2ccccc21 | inconclusive [inhibitor, single point] | –
3 | O=C(C1CCC1)N1CCc2cc(S(=O)(=O)NCc3ccco3)ccc21 | inconclusive [inhibitor, single point] | –
4 | CCC(C)(C)C1CCc2[nH]nc(C(=O)NCc3ccc(OC)cc3)c2C1 (stereo unspecified) | active: 23.1 µM | –
5 | CC(C)CCNS(=O)(=O)c1ccc(N2CCCCS2(=O)=O)cc1 | active: 11.6 µM | –
6 | CC(C)NS(=O)(=O)c1ccc(CCC(=O)NCc2ccco2)cc1 | inactive | –
7 | C=CCn1c(C)cc(C(=O)CSc2nnc3n(CCC)c(=O)c4ccccc4n23)c1C | active: 20.6 µM | –
8 | COc1ccc2c(c1)CCc1cn3nc(C)cc3nc1-2 | inactive | –
9 | CNS(=O)(=O)c1cccc(C(=O)Nc2cccc(Cl)c2)c1 | inactive | –
10 | S=C(NCCc1ccccc1)NC1CCCCCC1 | active: 18.4 µM | –
11 | CC1(Cc2cccc(F)c2)C(=O)Nc2ccc(OC(F)(F)F)cc21 (stereo unspecified) | inconclusive [inhibitor, single point] | –
12 | CSc1ccc(/C=N/NC(=O)c2sccc2C)cc1 | inconclusive [inhibitor, full curve, poor fit] | –
13 | COc1ccc(N2CCN(C(=O)Cn3cnc4c(cnn4-c4ccc(C)cc4)c3=O)CC2)cc1 | inactive | –
14 | COc1ccc(NC(=O)c2cc3n(n2)C(C(F)(F)F)CC(c2ccc4c(c2)OCO4)N3)cc1OC (stereo unspecified) | inconclusive [inhibitor, single point] | –
15 | COc1ccc(-c2nnc3n(CCc4ccccc4)c(=O)c4ccccc4n23)c(OC)c1 | active: 18.4 µM | –
16 | COc1ccc(-n2nc([N+](=O)[O-])c(=NCCc3ccc(C)cc3)n2O)cc1 | inconclusive [inhibitor, single point] | –
17 | Cc1ccc(NC(=O)CN(c2ccc(Cl)cc2)S(=O)(=O)c2cc([N+](=O)[O-])ccc2Cl)cc1 | inconclusive [inhibitor, single point] | –
18 | CCOc1ccccc1N=Nc1c(C)[nH]n(-c2ccccc2)c1=O | inactive | –
19 | Cc1cccc(C)c1OC(=O)CSc1nnc(CNC(=O)c2ccccc2)o1 | inactive | –
20 | CC(C)(CNc1ccc([N+](=O)[O-])cc1Cl)CNS(C)(=O)=O | inconclusive [inhibitor, single point] | –
21 | CC(C)Oc1cccc(C(=O)NC(=S)N2CCN(c3ccc(C(F)(F)F)cc3[N+](=O)[O-])CC2)c1 | inconclusive [inhibitor, partial curve, poor fit] | –
22 | Cc1cc(C)nc(S/C=C/C(=O)c2ccccc2F)n1 | active: 2.06 µM | –
23 | O=S(=O)(NCc1ccccc1Cl)c1ccc(-n2cnnn2)cc1 | inactive | –

Row | Structure (SMILES) | Potency | activity change, negative = growth inhibition
24 | CC(=O)Nc1ccc(N2C(C(C)=O)=NN(c3ccc(Cl)cc3)C2c2sccc2C)cc1 (stereo unspecified) | active: 23.1 µM | –
25 | CC1(C)CC(=O)C(C2c3ccccc3Oc3ccccc32)C(=O)C1 | inconclusive [inhibitor, single point] | –
26 | c1ccc(C[n+]2ccc3ccccc3c2)cc1 | active: 10.3 µM | –
27 | O=C(C[C@H]1C[C@@H]2c3cc(NS(=O)(=O)c4ccccc4)ccc3O[C@@H]2[C@H](CO)O1)N1CCOCC1 | inactive | –
28 | CCc1nc(C)cn1S(=O)(=O)c1ccc(Br)cc1 | – | inconclusive: -31.9% [inhibitor]
29 | CC(NC(=O)COC(=O)c1ccc2c(=O)n3c(nc2c1)CCCCC3)c1ccccc1 (stereo unspecified) | inactive | –
30 | CN(C(=O)CSc1nc(C2CCCC2)nc2c1c(=O)n(C)c(=O)n2C)c1ccccc1 | inconclusive [inhibitor, partial curve, poor fit] | –
31 | CC(=O)C1=CCC(c2cccc3ccccc23)N(S(=O)(=O)c2ccc(C)cc2)C1 (stereo unspecified) | inconclusive [inhibitor, single point] | –
32 | c1cncc(CNc2ncncc2-c2ccoc2)c1 | inconclusive [inhibitor, single point] | –
33 | Cc1ccc(NC(=O)NC(=O)CN2CCN(c3ccc(O)cc3)CC2)c(C)c1 | inconclusive [inhibitor, single point] | –
34 | Cc1nc2ncnn2c(N2CCN(S(=O)(=O)c3ccc(Br)cc3)CC2)c1C | – | inconclusive: -31.4% [inhibitor]
35 | CCOC(=O)C1=C(c2ccccc2)OC(N)=C(C#N)C1C1CCCCC1 (stereo unspecified) | inconclusive [inhibitor, single point] | –
36 | Cc1nn(C)c(C)c1S(=O)(=O)N1CCC(CO)(CC2CCCCO2)CC1 (stereo unspecified) | inactive | –
37 | Cc1cc(C(=O)N2CCCC(N3CCN(c4cccc(Cl)c4)CC3)C2)no1 (stereo unspecified) | inconclusive [inhibitor, single point] | –
38 | CCOC(=O)c1cnc2c(OC)cccc2c1N1CCN(c2ccc(OC)cc2)CC1 | inconclusive [inhibitor, single point] | –
39 | COc1cc(NC(=O)CSCc2ccc(Cl)cc2)c(C(=O)O)cc1OC | inactive | –
40 | Cc1ccc(COCC(CC(C)C)N2CCN(C(=O)c3cccc(C(F)(F)F)c3)CCC2=O)cc1 (stereo unspecified) | inconclusive [inhibitor, single point] | –
41 | Cc1ccc(-c2noc(CCC(=O)NC3CCCC3)n2)cc1 | inconclusive [inhibitor, single point] | –
42 | O=C(NCc1ccc(C(F)(F)F)cc1)c1ccc(-c2cccnc2)c2ccoc12 | inconclusive [inhibitor, single point] | –
43 | C=CCn1c(=N)n(CC(=O)c2cccc([N+](=O)[O-])c2)c2ccccc21 | inconclusive [inhibitor, single point] | –
44 | CC(C)COC(=O)Cn1nnc2sc(-c3ccccc3)cc2c1=O | inactive | –
45 | N#Cc1ccccc1NC(=O)CSc1ccc([N+](=O)[O-])cn1 | inconclusive [inhibitor, single point] | –
46 | COc1ccc(-n2nnc(-c3nsc(NC(=O)c4ccc(C)c(C)c4)n3)c2C)cc1Cl | inconclusive [inhibitor, partial curve] | –
